40 sequences from the supplement of paper PMC7826260 can be followed below.

The other results are listed elsewhere or left out. One pool of 16,384 single-stranded DNAs met each Rep nickase domain in vitro (3 µM enzyme, 1 h, 37 °C); shown is the middle of each 90-letter strand. A value is the log2 ratio of uncut reads to the pool without enzyme; more negative means more cut, near 0 not cut, and no call is made. Counts are relative to all reads; values above 0 arise when much of the pool is cut.

This assay concerns T1, Rep nickase domain of tomato golden mosaic virus.
T1 sequence (residues 1-124 of Rep, tag left off): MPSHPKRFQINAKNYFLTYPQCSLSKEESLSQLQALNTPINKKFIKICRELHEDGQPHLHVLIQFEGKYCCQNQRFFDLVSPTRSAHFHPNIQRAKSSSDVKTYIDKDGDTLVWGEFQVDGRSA
As to the kind of experiment: uncleaved DNA left, log2 of reads against the no-enzyme library (log2 ratio); higher = less cleavage (more negative = more Rep cleavage of the k-mer); sequences stand for … in CTCGTCCG…ACCGGAGA
As to the method: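 A pool of 90-nt single-stranded DNAs with seven random bases just before the constant AC of the nick site (name = the seven bases) was cut by 3 µM recombinant His6-SUMO-tagged Rep nickase domain (300 nM DNA, 50 mM HEPES pH 8.0, 50 mM NaCl, 1 mM MnCl2, 1 h, 37 °C, three replicates). Uncut DNA was amplified and sequenced.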
As for GGTCGCT, the “uncleaved DNA left (log2)” value is -0.0495. Regarding CCAGGGG, the “uncleaved DNA left (log2)” value was determined as 0.107. As for ACTGTGG, the figure is 0.0525; as for GAGACTG, 0.125. As for CTGACAT, the figure is 0.0782; as for TAGGTTT, 0.129; as for GTGCATG, -0.07.

Regarding GTCATAT, the “uncleaved DNA left (log2)” value was -0.00517.

As to CAGAGGA, the “uncleaved DNA left (log2)” value was 0.197.

With CACCTTA, the “uncleaved DNA left (log2)” value was 0.028. As for ATCGCAT, the figure is -0.00403; as for CGCGGCG, -0.0857. In the case of AATAGGT, the “uncleaved DNA left (log2)” value is 0.102. As for AGCAGAC, the figure is 0.0152; as for TAAGACA, -0.0565; as for CGAGAAT, 0.174. As for TAGAGGC, the figure is 0.0148; as for TTCGTAC, -0.0875. Turning to TACGCCC, the “uncleaved DNA left (log2)” value is -0.177. As for CGTTGGT, the figure is 0.0509; as for CGAGCTC, -0.135; as for ACACACC, -0.086.

In the case of CTACGTA, the “uncleaved DNA left (log2)” value is -0.143.

With CGTGGGT, the “uncleaved DNA left (log2)” value was -0.164.

On to GTGTTTT, for which the “uncleaved DNA left (log2)” value was 0.0309. Take AATATGT: the “uncleaved DNA left (log2)” value was determined as 0.0281.

Take CGAGGTT: the “uncleaved DNA left (log2)” value is 0.299. As for GTTACGG, the figure is 0.16. As for GATAACG, the figure is 0.0666; as for TAAGTAC, 0.0193; as for TTCCTTA, -0.143.

With GATCTAC, the “uncleaved DNA left (log2)” value was found to be 0.149.

As to TGCGTCT, the “uncleaved DNA left (log2)” value is -0.165. As for TAAGCAG, the figure is -0.134; as for ACACCAC, 0.0838.

As for GTCAATA, the “uncleaved DNA left (log2)” value was determined as 0.12. As for ACGCTGG, the figure is 0.169; as for CGGGAGA, 0.0733. As for AAAGGCG, the figure is 0.0138; as for TCCCTCG, -0.253.
